In all, about 150,000 compounds went through this assay and about 540 (0.36%) showed an effect of 50% or more. The list shows a part of the results.
These compounds were tested on Plasmodium falciparum (assay: Primary screen in NF54 nanoGlo assay, in single point, at 2uM, 72h; a lower Z score goes with more inhibition). Settings: timepoint 72 hour.
Format: functional, Erythrocyte

Row | Compound | % Inhibition | Z score
1 | N#Cc1ccc(-c2nc(-c3cccc(-c4csc(C5CC5)n4)c3)no2)c(F)c1 | -9% | 0.99
2 | Cc1ccccc1OCC(=O)NCc1ccc(C)n1C | -11% | 1.7
3 | O=C(N1CC(CO)C1)N(c1ccccc1)c1ccccc1 | -3% | 0.41
4 | Cc1cccc(CN(CC(=O)N2CCNCC2)C(=O)c2cccc(N(C)C)c2)c1 | 22% | -2.79
5 | O=C(c1ccc2nc(-c3ccc(F)cc3)cn2c1)N1CCN(CCO)CC1 | -7% | 1.31
6 | COc1ncc(NS(=O)(=O)Cc2cc(F)cc(F)c2)c(OC)n1 | -7% | 1
7 | Cc1noc(C)c1COc1nc(C(C)C)no1 | -4% | 0.55
8 | COc1cc(-c2nc(-c3ccc(Br)cc3)c(-c3ccccc3)[nH]2)cc2c1OCO2 | -5% | 0.95
9 | O=C(Nc1ccc(Cl)cc1F)N[C@H]1CCN(c2cc(N3CCOCC3)cnn2)C1 | -4% | 0.53
10 | O=C1NCCOCCCN(C(=O)CC2CCCCC2)[C@H]2CCCC[C@@H]12 | -13% | 2.2
11 | Cc1ccn(Cc2nc(N)nc(N(C)C)n2)c(=O)c1C#N | 33% | -4.44
12 | CN(C)C(=O)CCN1CCC[C@H]1c1nc(-c2ccccc2)c[nH]1 | -6% | 0.8
13 | Cc1nc(NCc2cc(C)oc2C)n(C)n1 | -6% | 0.92
14 | CC(C)c1ccc(NC(=O)CCC(=O)N2CCc3ccccc3C2)cc1 | 36% | -0.83
15 | CC1(C)CNc2ccc(Br)cc21 | 14% | -1.44
16 | CCCN(Cc1nnc(-c2ccccc2)o1)Cc1nccn1C | -1% | 0.17
17 | C[C@H](NCc1cc(Br)c2c(c1)OCO2)c1nccn1C | -11% | 1.73
18 | c1cc(-c2cc(C3CCN(c4cnccn4)CC3)n[nH]2)ccn1 | 5% | -0.61
19 | CN(C[C@H]1CCCCO1)C(=O)c1cc(F)c(F)c(O)c1F | -3% | 0.34
20 | COCC1(C(=O)O)CCN(C(=O)NC2CCc3[nH]c4ccc(C)cc4c3C2)C1 (stereo not drawn) | -1% | 0.2
21 | CCn1c(CC2CCNCC2)nn(Cc2cccc3cccnc23)c1=O | -4% | 0.69
22 | CC(=O)N1CCc2cc(S(=O)(=O)N3CC(=O)N4CCc5ccccc5[C@@H]4C3)ccc21 | 2% | -0.27
23 | O=C(COc1ccc(Cl)cc1Cl)N(C1CCCC1)[C@H]1CCS(=O)(=O)C1 | -22% | 4.1
24 | C[C@@H](Cn1cncn1)NCC1(N2CCOCC2)CCCCCC1 | -10% | 1.85

— ChEMBL document CHEMBL4888484, “Replenishing the malaria drug discovery pipeline: Screening and hit evaluation of the MMV Hit Generation Library 1 (HGL1) against asexual blood stage Plasmodium falciparum ,using a nano luciferase reporter read-out” (2022)
